Assay results as given in the supplement of paper PMC4967469.

Tests used:
Assay in all cases: Viability of human cancer cell lines after 72 h of drug (GDSC screen)
TG101348 = compound: Cc1cnc(Nc2ccc(OCCN3CCCC3)cc2)nc1Nc1cccc(S(=O)(=O)NC(C)(C)C)c1 [TG101348]; details: top dose 10.24 µM
Description: (§1)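 Human cancer cell lines in 384-well plates, medium with 10% serum, drug for 72 h over a 256-fold dose range (nine 2-fold or five 4-fold steps up to the top dose). Adherent lines were fixed and stained with the nucleic acid dye Syto60, suspension lines read with resazurin; signal relative to control wells, capped at 0 and 100%. One two-parameter sigmoid per drug and line, fitted in a mixed model over all curves with the slope shared within a line.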

17-AAG = compound: C=CCNC1=C2C[C@@H](C)C[C@H](OC)[C@H](O)[C@@H](C)/C=C(\C)[C@H](OC(N)=O)[C@@H](OC)/C=C\C=C(/C)C(=O)NC(=CC1=O)C2=O [17-AAG]; details: top dose 1 µM
Description: as §1

CCT018159 = compound: CCc1cc(-c2n[nH]c(C)c2-c2ccc3c(c2)OCCO3)c(O)cc1O [CCT018159]; details: top dose 10 µM; top dose inferred
Description: as §1

BMX-IN-1 (QL-XII-61) = compound: C=CC(=O)Nc1cc(-n2c(=O)ccc3cnc4ccc(-c5ccc(NS(C)(=O)=O)cc5)cc4c32)ccc1C [BMX-IN-1 (QL-XII-61)]; details: top dose 10 µM; top dose inferred
Description: as §1

VX-11e = compound: Cc1cnc(Nc2ccc(F)cc2Cl)nc1-c1c[nH]c(C(=O)N[C@H](CO)c2cccc(Cl)c2)c1 [VX-11e]; details: top dose 5.12 µM; top dose inferred
Description: as §1

Dimethyloxalylglycine = compound: COC(=O)CNC(=O)C(=O)OC [Dimethyloxalylglycine]; details: top dose 4000 µM; top dose inferred
Description: as §1

BIX02189 = compound: CN(C)Cc1cccc(N=C(c2ccccc2)c2c(O)[nH]c3cc(C(=O)N(C)C)ccc23)c1 [BIX02189]; details: top dose 20 µM; top dose inferred
Description: as §1

OSI-027 = compound: COc1cccc2cc(-c3nc([C@H]4CC[C@H](C(=O)O)CC4)n4ncnc(N)c34)[nH]c12 [OSI-027]; details: top dose 20 µM
Description: as §1

UNC1215 = compound: O=C(c1ccc(C(=O)N2CCC(N3CCCC3)CC2)c(Nc2ccccc2)c1)N1CCC(N2CCCC2)CC1 [UNC1215]; details: top dose 1 µM; top dose inferred
Description: as §1

Vismodegib = compound: CS(=O)(=O)c1ccc(C(=O)Nc2ccc(Cl)c(-c3ccccn3)c2)c(Cl)c1 [Vismodegib]; details: top dose 10 µM; top dose inferred
Description: as §1

Cell Line | AUC (TG101348) | IC50 (TG101348) [µM] | AUC (17-AAG) | IC50 (17-AAG) [µM] | AUC (CCT018159) | IC50 (CCT018159) [µM] | AUC (BMX-IN-1 (QL-XII-61)) | IC50 (BMX-IN-1 (QL-XII-61)) [µM] | AUC (VX-11e) | IC50 (VX-11e) [µM] | AUC (Dimethyloxalylglycine) | IC50 (Dimethyloxalylglycine) [µM] | AUC (BIX02189) | IC50 (BIX02189) [µM] | AUC (OSI-027) | IC50 (OSI-027) [µM] | AUC (UNC1215) | IC50 (UNC1215) [µM] | AUC (Vismodegib) | IC50 (Vismodegib) [µM]
OVCAR-3 (ovary, adherent) | 0.987 | > 10.2 | 0.811 | 0.597 | 0.914 | > 10 | 0.943 | > 10 | 0.985 | > 5.12 | 0.442 | 171 | 0.985 | > 20 | 0.986 | > 20 | 0.985 | > 1 | – | –
SK-GT-2 (stomach, adherent) | – | – | 0.706 | 0.246 | 0.864 | 9.5 | 0.963 | > 10 | – | – | – | – | – | – | – | – | 0.984 | > 1 | 0.974 | > 10
NCC021 (kidney, adherent) | 0.806 | 6.3 | 0.949 | > 1 | – | – | 0.977 | > 10 | 0.956 | > 5.12 | – | – | 0.924 | > 20 | 0.398 | 0.623 | 0.983 | > 1 | 0.971 | > 10
SKM-1 (haematopoietic neoplasm, suspension) | – | – | 0.673 | 0.2 | 0.875 | > 10 | 0.76 | 3.85 | – | – | – | – | – | – | – | – | 0.981 | > 1 | – | –
MDA-MB-468 (breast, adherent) | 0.931 | > 10.2 | 0.978 | > 1 | 0.946 | > 10 | 0.985 | > 10 | 0.963 | > 5.12 | 0.9 | > 4000 | 0.957 | > 20 | 0.387 | 0.62 | 0.985 | > 1 | – | –
RCC-ER (kidney, adherent) | 0.829 | 7.45 | 0.884 | > 1 | – | – | 0.977 | > 10 | 0.973 | > 5.12 | – | – | 0.986 | > 20 | 0.797 | 10.8 | 0.984 | > 1 | 0.986 | > 10
EW-22 (Ewing sarcoma, adherent) | – | – | 0.922 | > 1 | 0.964 | > 10 | 0.911 | > 10 | – | – | – | – | – | – | – | – | 0.987 | > 1 | 0.988 | > 10
NCI-H460 (large cell lung carcinoma, adherent) | 0.98 | > 10.2 | – | – | 0.819 | 5.02 | 0.985 | > 10 | 0.944 | > 5.12 | 0.446 | 180 | 0.97 | > 20 | 0.985 | > 20 | 0.899 | > 1 | 0.99 | > 10
NCI-H2066 (small cell lung carcinoma, adherent) | – | – | 0.948 | > 1 | – | – | 0.975 | > 10 | – | – | – | – | – | – | – | – | 0.977 | > 1 | – | –
A549 (lung adenocarcinoma, adherent) | – | – | 0.154 | 0.00449 | 0.764 | 4.08 | 0.981 | > 10 | – | – | – | – | – | – | – | – | 0.974 | > 1 | 0.957 | > 10
SU-DHL-10 (B-cell lymphoma, suspension) | 0.55 | 0.846 | 0.931 | 0.783 | 0.922 | 7.29 | 0.97 | > 10 | 0.973 | > 5.12 | 0.055 | 17.8 | 0.891 | 11.6 | 0.089 | 0.117 | 0.997 | > 1 | – | –
CL-34 (large intestine, adherent) | – | – | 0.876 | > 1 | 0.987 | > 10 | 0.931 | > 10 | – | – | – | – | – | – | – | – | 0.979 | > 1 | 0.984 | > 10
HT-29 (large intestine, adherent) | 0.761 | 3.63 | – | – | 0.96 | > 10 | 0.978 | > 10 | 0.681 | 1.03 | 0.661 | 699 | 0.957 | > 20 | 0.771 | 7.62 | 0.986 | > 1 | 0.988 | > 10
BT-474 (breast, adherent) | 0.936 | > 10.2 | – | – | 0.851 | 9.15 | 0.654 | 1.77 | 0.947 | > 5.12 | 0.947 | > 4000 | 0.972 | > 20 | 0.444 | 0.863 | 0.984 | > 1 | 0.984 | > 10
OVCAR-8 (ovary, adherent) | 0.867 | 7.68 | 0.587 | 0.105 | 0.83 | 5.4 | 0.97 | > 10 | 0.866 | 3.78 | 0.629 | 542 | 0.935 | > 20 | 0.508 | 1.31 | 0.989 | > 1 | – | –
SCC-4 (head and neck, adherent) | 0.932 | > 10.2 | – | – | 0.839 | 8.78 | 0.982 | > 10 | 0.92 | > 5.12 | 0.662 | 771 | 0.974 | > 20 | 0.914 | > 20 | 0.982 | > 1 | 0.98 | > 10
ZR-75-30 (breast, adherent) | – | – | 0.752 | 0.5 | 0.922 | > 10 | 0.981 | > 10 | – | – | – | – | – | – | – | – | 0.981 | > 1 | 0.983 | > 10

Lines with a small IC50 respond at low doses; where the fit passes the top or lowest dose, that dose stands as a limit. AUC, from the same fit, is the share of area under the viability curve across the 256-fold dose range; it is 1 without any effect and falls as sensitivity rises. For part of these data: An inferred top dose is not printed in the source and was worked back from the curve model.
